# Reference: PMC7819943, “Rice protein-binding microarrays: a tool to detect cis-acting elements near promoter regions in rice”
# Some of the results follow.
# Target: T1, OsWOX13 (Oryza sativa, UniProt Q5QMM3 1-267)
# T1 sequence: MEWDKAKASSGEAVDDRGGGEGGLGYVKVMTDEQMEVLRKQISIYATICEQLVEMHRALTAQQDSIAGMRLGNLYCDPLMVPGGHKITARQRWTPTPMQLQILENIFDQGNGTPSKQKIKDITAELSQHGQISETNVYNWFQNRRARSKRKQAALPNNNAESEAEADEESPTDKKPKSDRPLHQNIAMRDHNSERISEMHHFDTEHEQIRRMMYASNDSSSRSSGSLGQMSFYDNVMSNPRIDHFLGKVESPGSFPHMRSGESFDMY
# Experiment: protein-binding microarray (RPBM); PBS, 2% BSA, 51.3 ng/ul salmon testes DNA, 50 uM zinc acetate, 200 nM TF, 25 C, 1 h; high values mean tight binding
# Details: protein: recombinant; tags: N-terminal polyhistidine and DsRed monomer fusion (pET32a); label: CyDye5-dUTP incorporated in the synthesized complementary strand; 3' TTTTT single-stranded linker to array surface; dsDNA, one strand shown
# Summary of the method: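 Binding signal here means per-feature fluorescence intensity in arbitrary units. The values were read on an Axon 4000B scanner after a custom Agilent array, double-stranded by primer extension with Cy5-dUTP, was incubated with 200 nM protein at 25 °C for 1 h in PBS with 2% BSA, salmon testes DNA and 50 µM zinc acetate, then washed. The proteins were transcription factors with an N-terminal polyhistidine tag and DsRed, expressed in E. coli BL21-CodonPlus and purified on Ni–NTA.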
row,Sequence,binding signal
1,AAGCAAATTTGACTGCTGCTTTAGAGGTTGCCGAACTGGCCGGAGTCACCTAGTGCAG,16500 fluorescence intensity (a.u.)
2,CTGTGATGAGTTTGCTGTGTTGTCATCTTCTGTTAGTGGACGGAGTCACCTAGTGCAG,5580 fluorescence intensity (a.u.)
3,AATTTCGTCAATAGATTATGACACCCGTGCCATTTCAGCGCGGAGTCACCTAGTGCAG,4940 fluorescence intensity (a.u.)
4,CTTCCCAATAAAAGGCGATGTAATTGATACCTGCCCGTTGCGGAGTCACCTAGTGCAG,8060 fluorescence intensity (a.u.)
5,AACGTCGCCGTCAATTAAATTGTGCCACCGGTTACAAACACGGAGTCACCTAGTGCAG,4420 fluorescence intensity (a.u.)
6,ATTTAACACTAAATTTCTCACAGAACTACATATTTAATGTCGGAGTCACCTAGTGCAG,3590 fluorescence intensity (a.u.)
7,GTCGCGTAATTGCGCGCGCTTCGCGTGCGGCCGTGCAGTGCGGAGTCACCTAGTGCAG,6020 fluorescence intensity (a.u.)
8,AGTGGCGCCATCAACATCAATCTATTCTAGCTATCTCGGGCGGAGTCACCTAGTGCAG,3230 fluorescence intensity (a.u.)
9,ATACCGTGATTGGGATTACCTGTGACCTTGCCTATTTGACCGGAGTCACCTAGTGCAG,40900 fluorescence intensity (a.u.)
10,GAAGTTTAATTAGCACACGAGTAGTTTGCAAGTTGTAAGGCGGAGTCACCTAGTGCAG,9120 fluorescence intensity (a.u.)
11,CTTTAATTGCTTCTCTCTCTTCTCCCAATTGCAGTCCTCTCGGAGTCACCTAGTGCAG,37200 fluorescence intensity (a.u.)
12,GCTCTGATTAATTTCAAACTTCGATTATGGACTAGTCAACCGGAGTCACCTAGTGCAG,53400 fluorescence intensity (a.u.)
13,ATGTCTGATCAATTAATTACCTTGCTATTGCTAACCAGGGCGGAGTCACCTAGTGCAG,19700 fluorescence intensity (a.u.)
14,CTGACTGACTGGACCAGGTCACCCGCGAGGCCGCGACGTGCGGAGTCACCTAGTGCAG,16300 fluorescence intensity (a.u.)
15,GTGATGATTTTGTCATAGCTCATCAGTGTAGTATATGCCTCGGAGTCACCTAGTGCAG,19900 fluorescence intensity (a.u.)
16,TCAAATAATTATATTTTCTAAGTTTATAATATTTGTTTGACGGAGTCACCTAGTGCAG,10600 fluorescence intensity (a.u.)
17,TACAATTTGACATGTTAAAATCACAACTTGACACAGGCATCGGAGTCACCTAGTGCAG,6650 fluorescence intensity (a.u.)
18,GGTTAACTGGTAAGTTTATTAGTTTTCTGGAATATTACTTCGGAGTCACCTAGTGCAG,23300 fluorescence intensity (a.u.)
19,TTTGATTTGATCAAGTGGGAGGCAACCTTCTTGTTGTTTGCGGAGTCACCTAGTGCAG,50400 fluorescence intensity (a.u.)
20,CCCCTGATTTCCGATTTGTTTGGTCGATGGAGACTGGATGCGGAGTCACCTAGTGCAG,21300 fluorescence intensity (a.u.)
21,TTAAAAGTAATTGATTAACTACATATGAAAAGAAGATAGGCGGAGTCACCTAGTGCAG,35200 fluorescence intensity (a.u.)
22,AGTGATTGCATCCAGGAAAGTCACACTTGTGTAAGAAACTCGGAGTCACCTAGTGCAG,19800 fluorescence intensity (a.u.)
23,ACTAATTTCTTCATTCCAATATATGAATACTCTCTTCGTCCGGAGTCACCTAGTGCAG,23200 fluorescence intensity (a.u.)
24,TTGACACCTAATTATTACCTACAGAGGTTTGCTAACCCAACGGAGTCACCTAGTGCAG,10500 fluorescence intensity (a.u.)
25,AATTGCCAATTCAAATTTGCTCAAAATTTTACTACACCGTCGGAGTCACCTAGTGCAG,4220 fluorescence intensity (a.u.)
26,TGTAATGATGGCAATATATATCGATCTCCTCCTCTCTAATCGGAGTCACCTAGTGCAG,5070 fluorescence intensity (a.u.)
27,AAAATTGAGCAAAATTTAGGCCATAGAAAGGGAGAAGCTCCGGAGTCACCTAGTGCAG,6870 fluorescence intensity (a.u.)

row,Sequence,binding signal
1,ATCTAATCTTGAATTAAACTCACTATCAATTCCCACCATCCGGAGTCACCTAGTGCAG,4380 fluorescence intensity (a.u.)
2,ATTAATTAGGCTCAAAATATTAGTCTCACGGTTTCCAGACCGGAGTCACCTAGTGCAG,14700 fluorescence intensity (a.u.)
3,TTTTCAATTTATTTAAATTTAAGGAGGTTACCGTGGCATTCGGAGTCACCTAGTGCAG,25400 fluorescence intensity (a.u.)
4,TTATAACATTATTGATTGATATCAACACTTGTATGCATAACGGAGTCACCTAGTGCAG,49700 fluorescence intensity (a.u.)
5,AAAATTGGAAGTTTGAAGAAATTAGAATAATGTGACGGAACGGAGTCACCTAGTGCAG,3400 fluorescence intensity (a.u.)
6,CAAAATAGACTTTTCTCATCATTAGTACATTGACATACCACGGAGTCACCTAGTGCAG,10300 fluorescence intensity (a.u.)
7,TTAAATGTTAAGCCTAATTACGTCATGGTTTGACAACGTTCGGAGTCACCTAGTGCAG,8450 fluorescence intensity (a.u.)
8,GGGTGGTTAATTTGTTTTAACGAGATGGTCAGTGTGAACGCGGAGTCACCTAGTGCAG,21200 fluorescence intensity (a.u.)
9,ATGTCAGATAATTAATTATTCCATTTATAGGTGTGTGAGGCGGAGTCACCTAGTGCAG,24800 fluorescence intensity (a.u.)
10,GCCTAATCAAATCATTCTCCGGCACGTACTACTGTACGTCCGGAGTCACCTAGTGCAG,3580 fluorescence intensity (a.u.)
11,GTCGCTGTCATTTGGTTGTTTCATTTGTAATATTAGTTGTCGGAGTCACCTAGTGCAG,3360 fluorescence intensity (a.u.)
12,ACCATCATAATGATGTTGACATGAAATCATAAATACTTTCCGGAGTCACCTAGTGCAG,4980 fluorescence intensity (a.u.)
13,CATTGACATGACATGACCAATTACTCCGTCCAGGGACCAGCGGAGTCACCTAGTGCAG,32200 fluorescence intensity (a.u.)
14,ATAGATTTGTTATCCAAACACAAAAGTGACTTGGAGGGCTCGGAGTCACCTAGTGCAG,8580 fluorescence intensity (a.u.)
15,TTTATAATTAGTGTCCAAACATCCGATGTGATAGGGACTTCGGAGTCACCTAGTGCAG,18500 fluorescence intensity (a.u.)
16,TTTAGATTTCTTACTGTGTAAATTTACAACAAAGATTGTACGGAGTCACCTAGTGCAG,3320 fluorescence intensity (a.u.)
17,AGTACATTGATGACACTGAAGATTTTATCAACATTCAGTTCGGAGTCACCTAGTGCAG,4140 fluorescence intensity (a.u.)
18,CAAGTAATTAATCAACACATCAGCAGGCTAGCTCCTGTAACGGAGTCACCTAGTGCAG,13800 fluorescence intensity (a.u.)
19,ATAAGTTGGGCTGGTTTTCTGATTGAGGGATGTGATTCGACGGAGTCACCTAGTGCAG,3490 fluorescence intensity (a.u.)
20,GAATAATTTTGAAAATTTTGTACGATTATTATAGGTACAACGGAGTCACCTAGTGCAG,25000 fluorescence intensity (a.u.)
21,TAGATTAAATTAATATATTACCCACTAATTTTACCTATAACGGAGTCACCTAGTGCAG,19100 fluorescence intensity (a.u.)
22,TAAATCACTAAATTATTAATGTCTTTAACAAGCATAGTGCCGGAGTCACCTAGTGCAG,11900 fluorescence intensity (a.u.)
23,TCCCATGATTTCTATTTCTCTAATCCTAATCTCATGCTTCCGGAGTCACCTAGTGCAG,15500 fluorescence intensity (a.u.)
24,CCTAGATCTAATTGGGTAATAGTTTTACATTTATTGGTTTCGGAGTCACCTAGTGCAG,17500 fluorescence intensity (a.u.)
25,TTTTCAAATTTTAGTATACTGATTTATGTTTGCATACAGTCGGAGTCACCTAGTGCAG,9360 fluorescence intensity (a.u.)
26,GAGCAAATTGCAAAAGCAAAGAATAAAATGAAATATCGGGCGGAGTCACCTAGTGCAG,3970 fluorescence intensity (a.u.)
27,GTGTCTCAGTCAACATCAATTGATTGATCAATATAACAACCGGAGTCACCTAGTGCAG,39900 fluorescence intensity (a.u.)
